Target: CLR/RAMP1 receptor (Homo sapiens, UniProt O60894+Q16602)
Assay: CLR/RAMP1 cAMP receptor-activation assay (agonist mode);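 also: Dose–response over 10 threefold dilutions from 1.0 µM, run in duplicate, luminescent cAMP detection (RLU), activity scaled between vehicle control (0%) and maximal control (100%)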
Assay type: cell-based

CLR/RAMP1 receptor, sequence (Q16602 23-461): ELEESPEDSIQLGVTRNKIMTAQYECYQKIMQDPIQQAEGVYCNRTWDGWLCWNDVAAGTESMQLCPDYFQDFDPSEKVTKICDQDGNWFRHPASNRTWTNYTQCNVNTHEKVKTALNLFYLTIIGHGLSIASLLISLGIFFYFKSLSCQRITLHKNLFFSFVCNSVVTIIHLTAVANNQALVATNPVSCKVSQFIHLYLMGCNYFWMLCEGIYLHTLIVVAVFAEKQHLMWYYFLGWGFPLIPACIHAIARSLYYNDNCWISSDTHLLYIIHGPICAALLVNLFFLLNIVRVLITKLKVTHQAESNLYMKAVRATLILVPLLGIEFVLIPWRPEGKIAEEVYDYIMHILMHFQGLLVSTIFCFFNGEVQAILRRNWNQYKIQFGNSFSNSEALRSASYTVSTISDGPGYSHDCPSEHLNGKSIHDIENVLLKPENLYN
CLR/RAMP1 receptor, sequence (O60894 27-148): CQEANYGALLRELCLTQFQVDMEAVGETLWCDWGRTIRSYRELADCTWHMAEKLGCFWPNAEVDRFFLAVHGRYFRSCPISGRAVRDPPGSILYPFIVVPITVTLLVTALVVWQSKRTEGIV

SMILES | agonistic potency for CLR/RAMP1 and/or CLR/RAMP2 receptors, in words
CCCCCCCCCCCCCCCC(=O)NCCCC[C@H](NC(C)=O)C(=O)NCC(=O)N[C@H]1CSSC[C@@H](C(=O)N[C@H](C(=O)N[C@H](C(=O)N[C@@H](Cc2c[nH]cn2)C(=O)N[C@@H](CCCNC(=N)N)C(=O)N[C@@H](CC(C)C)C(=O)N[C@@H](C)C(=O)NCC(=O)N[C@@H](CC(C)C)C(=O)N[C@@H](CC(C)C)C(=O)N[C@@H](CO)C(=O)N[C@@H](CCCNC(=N)N)C(=O)N[C@@H](CO)C(=O)NCC(=O)NCC(=O)N[C@H](C(=O)N[C@H](C(=O)N[C@@H](CCCCN)C(=O)N[C@@H](CC(N)=O)C(=O)N[C@@H](CC(N)=O)C(=O)N[C@@H](Cc2ccccc2)C(=O)N[C@H](C(=O)N2CCC[C@H]2C(=O)N[C@H](C(=O)N[C@@H](CC(N)=O)C(=O)N[C@H](C(=O)NCC(=O)N[C@@H](CO)C(=O)N[C@@H](CCCCN)C(=O)N[C@@H](C)C(=O)N[C@@H](Cc2ccccc2)C(N)=O)C(C)C)[C@@H](C)O)C(C)C)C(C)C)C(C)C)[C@@H](C)O)C(C)C)NC(=O)[C@H]([C@@H](C)O)NC(=O)[C@H](C)NC(=O)[C@H]([C@@H](C)O)NC(=O)[C@H](CC(=O)O)NC1=O [SEQ ID NO: 74] | did not affect the characteristics of CGRP activity
CC[C@H](C)[C@H](NC(=O)[C@H](CCC(N)=O)NC(=O)[C@H](Cc1c[nH]cn1)NC(=O)[C@H](C)NC(=O)[C@H](CC(C)C)NC(=O)[C@H](CCCCN)NC(=O)[C@H](CCC(N)=O)NC(=O)[C@@H](NC(=O)[C@@H](NC(=O)[C@@H]1CSSC[C@H](NC(=O)CNC(=O)[C@H](CCCCN)NC(C)=O)C(=O)N[C@@H](CCCNC(=N)N)C(=O)N[C@@H](Cc2ccccc2)C(=O)NCC(=O)N[C@@H]([C@@H](C)O)C(=O)N1)[C@@H](C)O)C(C)C)C(=O)N[C@@H](Cc1ccc(O)cc1)C(=O)N[C@@H](CCC(N)=O)C(=O)N[C@@H](Cc1ccccc1)C(=O)N[C@H](C(=O)N[C@@H](CC(=O)O)C(=O)N[C@@H](CCCCN)C(=O)N[C@@H](CC(=O)O)C(=O)N[C@@H](CO)C(=O)N[C@@H](C)C(=O)N1CCC[C@H]1C(=O)N[C@H](C(=O)N[C@@H](CC(=O)O)C(=O)N1CCC[C@H]1C(=O)N[C@@H](CO)C(=O)N[C@@H](CO)C(=O)N1CCC[C@H]1C(=O)N[C@@H](Cc1c[nH]cn1)C(=O)N[C@@H](CO)C(=O)N[C@@H](Cc1ccc(O)cc1)C(N)=O)C(C)C)[C@@H](C)O [SEQ ID NO: 93] | did not exhibit increases in potency
CCCCCCCCCCCCCCCC(=O)N[C@@H](C)C(=O)N[C@H]1CSSC[C@@H](C(=O)N[C@H](C(=O)N[C@H](C(=O)N[C@@H](Cc2c[nH]cn2)C(=O)N[C@@H](CCCNC(=N)N)C(=O)N[C@@H](CC(C)C)C(=O)N[C@@H](C)C(=O)NCC(=O)N[C@@H](CC(C)C)C(=O)N[C@@H](CC(C)C)C(=O)N[C@@H](CO)C(=O)N[C@@H](CCCNC(=N)N)C(=O)N[C@@H](Cc2ccccc2)C(=O)N[C@H](C(=O)N[C@@H](CC(=O)O)C(=O)N[C@@H](CCCCN)C(=O)N[C@@H](CC(=O)O)C(=O)N[C@@H](CCCCN)C(=O)N[C@@H](CC(=O)O)C(=O)N[C@@H](CC(N)=O)C(=O)N[C@H](C(=O)N[C@@H](C)C(=O)N2CCC[C@H]2C(=O)N[C@@H](CCCNC(=N)N)C(=O)N[C@@H](CO)C(=O)N[C@@H](CCCCN)C(=O)N[C@H](C(=O)N[C@@H](CO)C(=O)N2CCC[C@H]2C(=O)N[C@@H](CCC(N)=O)C(=O)NCC(=O)N[C@@H](Cc2ccc(O)cc2)C(N)=O)[C@@H](C)CC)C(C)C)[C@@H](C)O)[C@@H](C)O)C(C)C)NC(=O)[C@H]([C@@H](C)O)NC(=O)[C@H](C)NC(=O)[C@H]([C@@H](C)O)NC(=O)[C@H](CC(=O)O)NC1=O [SEQ ID NO: 104] | did not exhibit increases in potency
CCCCCCCCCCCCCCCC(=O)N[C@@H](Cc1ccccc1)C(=O)NCC(=O)N[C@H]1CSSC[C@@H](C(=O)N[C@H](C(=O)N[C@H](C(=O)N[C@@H](CCC(N)=O)C(=O)N[C@@H](CCCCN)C(=O)N[C@@H](CC(C)C)C(=O)N[C@@H](C)C(=O)N[C@@H](Cc2c[nH]cn2)C(=O)N[C@@H](CCCNC(=N)N)C(=O)N[C@@H](CC(C)C)C(=O)N[C@@H](Cc2c[nH]c3ccccc23)C(=O)N[C@@H](CCC(N)=O)C(=O)N[C@@H](CC(C)C)C(=O)N[C@@H](CCSC)C(=O)NCC(=O)N2CCC[C@H]2C(=O)N[C@@H](CC(=O)O)C(=O)N[C@@H](CCCCN)C(=O)N[C@@H](CC(=O)O)C(=O)N[C@@H](CC(N)=O)C(=O)N[C@H](C(=O)N[C@@H](C)C(=O)N2CCC[C@H]2C(=O)N[C@@H](CCCNC(=N)N)C(=O)N[C@@H](CO)C(=O)N[C@@H](CCCCN)C(=O)N[C@H](C(=O)N[C@@H](CO)C(=O)N2CCC[C@H]2C(=O)N[C@@H](CCC(N)=O)C(=O)NCC(=O)N[C@@H](Cc2ccc(O)cc2)C(N)=O)[C@@H](C)CC)C(C)C)C(C)C)[C@@H](C)O)NC(=O)[C@H]([C@@H](C)O)NC(=O)CNC(=O)[C@H](Cc2ccccc2)NC(=O)[C@H](CCCNC(=N)N)NC1=O [SEQ ID NO: 105] | did not exhibit increases in potency
